# No constants are given. Whether binding was seen depends on the method and setting. In cells and extracts the contact can be indirect. Some results given as binding are weak or reduced against the parent protein; the word gives no strength.
# Chains of the proteins cited; added tags and fusions are not shown.
# UniProt P48432: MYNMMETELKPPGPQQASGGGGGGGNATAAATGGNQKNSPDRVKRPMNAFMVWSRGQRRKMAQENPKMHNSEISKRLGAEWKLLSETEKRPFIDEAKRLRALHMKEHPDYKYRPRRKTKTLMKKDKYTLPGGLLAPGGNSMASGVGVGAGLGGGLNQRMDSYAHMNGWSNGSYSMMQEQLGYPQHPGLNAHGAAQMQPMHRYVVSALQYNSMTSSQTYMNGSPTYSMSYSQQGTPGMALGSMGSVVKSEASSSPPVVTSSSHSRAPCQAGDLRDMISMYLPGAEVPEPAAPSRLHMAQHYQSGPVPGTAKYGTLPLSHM
# UniProt P20263: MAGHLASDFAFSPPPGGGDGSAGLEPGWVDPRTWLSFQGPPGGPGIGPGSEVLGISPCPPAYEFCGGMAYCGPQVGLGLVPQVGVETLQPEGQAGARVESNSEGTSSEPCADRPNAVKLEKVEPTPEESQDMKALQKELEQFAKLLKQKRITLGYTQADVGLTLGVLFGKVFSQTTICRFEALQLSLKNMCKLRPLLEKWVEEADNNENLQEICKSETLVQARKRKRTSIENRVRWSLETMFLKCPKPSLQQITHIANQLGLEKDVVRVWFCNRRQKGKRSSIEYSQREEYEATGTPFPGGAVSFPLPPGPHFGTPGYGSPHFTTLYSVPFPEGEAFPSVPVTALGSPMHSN
# UniProt Q61937: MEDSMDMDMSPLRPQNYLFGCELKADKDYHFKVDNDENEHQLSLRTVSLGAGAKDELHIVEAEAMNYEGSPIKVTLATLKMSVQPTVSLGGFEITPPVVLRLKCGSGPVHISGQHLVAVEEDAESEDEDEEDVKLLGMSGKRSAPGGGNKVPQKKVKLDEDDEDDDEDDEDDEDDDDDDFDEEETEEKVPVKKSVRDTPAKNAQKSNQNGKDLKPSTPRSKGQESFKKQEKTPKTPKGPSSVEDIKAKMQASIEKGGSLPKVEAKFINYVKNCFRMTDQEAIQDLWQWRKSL
# T1: Nanog (mouse (endogenous in R1 ES cells)) (UniProt Q80Z64)
# T1 sequence: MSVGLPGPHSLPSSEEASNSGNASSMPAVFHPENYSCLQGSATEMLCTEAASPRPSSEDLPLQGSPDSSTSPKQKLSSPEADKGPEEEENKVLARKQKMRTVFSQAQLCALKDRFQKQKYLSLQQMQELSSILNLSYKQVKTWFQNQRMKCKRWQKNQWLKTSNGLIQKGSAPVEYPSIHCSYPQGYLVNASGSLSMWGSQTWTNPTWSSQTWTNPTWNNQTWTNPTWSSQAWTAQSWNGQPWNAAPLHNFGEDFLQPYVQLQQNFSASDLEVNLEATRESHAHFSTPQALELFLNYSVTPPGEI
# What was measured:
# [1] = target: Sox2 (mouse (endogenous in R1 ES cells)) (UniProt P48432); assay: proximity ligation; in situ PLA on ES cells with another set of antibodies (anti-Sox2 MAB2018, R&D Systems; anti-Npm1 ab15440, abcam); data not shown
# [2] = target: Sox2 (mouse (endogenous in R1 ES cells)) (UniProt P48432); assay: co-IP; anti-Sox2 (ab15830) cross-linked to Dynabeads Protein G, about 0.2 mg whole cell extract of ES cells overnight at 4°C; eluted with 1 M NaCl, then 0.1 M citrate; Western blot with anti-Npm1
# [3] = target: T1, Nanog (mouse (endogenous in R1 ES cells)); assay: proximity ligation; in situ PLA (Duolink) on fixed, permeabilised murine R1 ES cells with two primary antibodies against the endogenous proteins; confocal microscopy; signal needs less than 40 nm between the antibodies; interphase and mitotic cells; for Npm1/Sox2 also after 24 h of LIF withdrawal, 2% dimethyl sulfoxide or 2.0 uM retinoic acid
# [4] = target: Oct4 (mouse (endogenous in R1 ES cells)) (UniProt P20263); assay: as above
# [5] = target: Sox2 (mouse (endogenous in R1 ES cells)) (UniProt P48432); assay: as above
binding [1],binding [2],binding [3],binding [4],binding [5],Molecule
binds,binds,binds,binds,binds,Nucleophosmin/nucleoplasmin family member 1 (Npm1) (from UniProt Q61937 1-292)
–,–,–,binds,–,Npm1 phosphorylated at residue T198 (from UniProt Q61937 1-292)
–,–,no binding,binds,no binding,"translationally controlled tumor protein (Tpt1) (protein, UniProt P63028 1-172) MIIYRDLISHDELFSDIYKIREIADGLCLEVEGKMVSRTEGAIDDSLIGGNASAEGPEGEGTESTVVTGVDIVMNHHLQETSFTKEAYKKYIKDYMKSLKGKLEEQKPERVKPFMTGAAEQIKHILANFNNYQFFIGENMNPDGMVALLDYREDGVTPFMIFFKDGLEMEKC"

# Source: article PMC3006024
